Measured values as given in patent US20180194862A1 (AbbVie / Abbott, published 2018).

T1: cynomolgus 4-1BB (cynomolgus, UniProt A9YYE7 24-186)
T1 sequence: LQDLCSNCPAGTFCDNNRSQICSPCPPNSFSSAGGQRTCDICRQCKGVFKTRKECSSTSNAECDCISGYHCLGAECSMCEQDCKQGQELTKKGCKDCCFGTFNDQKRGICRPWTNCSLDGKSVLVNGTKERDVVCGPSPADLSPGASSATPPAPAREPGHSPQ

B1: B45 (bispecific antibody)
chain: SYELTQPPSVSVSPGQTASITCSGDKLGDKYASWYQQKPGQSPVLVIYQDNRRPSGIPERFSGSNSGNTATLTISGTQAMDEADYYCQAWDSDTYVFGTGTKVTVLGQDLSGGGGSGGGGSGGGGSGGGGSTGEVQLVQSGAEVKKPGASVKVSCKASGDTFKRYYVHWVRQAPGQGLEWMGIINPSGVSTTYAQKFQGRVTMTRDTSTSTVYMELSSLRSEDTAVYYCAEVRGSGFNYFGMDVWGQGTLVTVSS[human IgG1 Fc with C220S V273E (EU numbers) not written out]VDGASSPVNVSSPSVQDIDIQMTQSPSSLSASVGDRVTITCKASQSVVTAVAWYQQKPGKSPKLLIYSASNRYTGVPSRFSGSGSGTDFTLTISSLQPEDFATYFCQQYSSYPYTFGGGTKVEIKRDLSGGGGSGGGGSGGGGSGGGGSTGEVQLVQSGAEVKKPGSSVKVSCKASGYTFTDYYINWVRQAPGQGLEWIGWIFPGSGSVYCNEQFKGRATLTVDRSTSTAYMELSSLRSEDTAVYFCASSLGKFAYWGQGTLVTVSS
notes: scFv-Fc-scFv
B2: B46 (bispecific antibody)
chain: SYELTQPPSVSVSPGQTASITCSGDKLGDKYASWYQQKPGQSPVLVIYQDNRRPSGIPERFSGSNSGNTATLTISGTQAMDEADYYCQAWDSDTYVFGTGTKVTVLGQDLSGGGGSGGGGSGGGGSGGGGSTGEVQLVQSGAEVKKPGASVKVSCKASGDTFKRYYVHWVRQAPGQGLEWMGIINPSGVSTTYAQKFQGRVTMTRDTSTSTVYMELSSLRSEDTAVYYCAEVRGSGFNYFGMDVWGQGTLVTVSS[human IgG1 Fc with C220S V273E (EU numbers) not written out]VDGASSPVNVSSPSVQDIEVQLQESGPGLVKPSETLSLTCTVSGYSITSNYYWNWIRQPPGKGLEWMGYIRYDGSNNYNPSLKNRVTISRDTSKNQFSLKLSSVTAADTAVYYCARLDYWGQGTTVTVSSDLSGGGGSGGGGSGGGGSGGGGSTGDAVMTQTPLSLSVTPGQPASISCRSSQSLENTNGNTFLNWYLQKPGQSPQLLIYRVSNRFSGVPDRFSGSGSGTDFTLKISRVEAEDVGVYYCLQVTHVPFTFGQGTKLEIKR
notes: scFv-Fc-scFv
B3: B43 (bispecific antibody)
chain: EVQLVQSGAEVKKPGASVKVSCKASGDTFKRYYVHWVRQAPGQGLEWMGIINPSGVSTTYAQKFQGRVTMTRDTSTSTVYMELSSLRSEDTAVYYCAEVRGSGFNYFGMDVWGQGTLVTVSSDLSGGGGSGGGGSGGGGSGGGGSTGSYELTQPPSVSVSPGQTASITCSGDKLGDKYASWYQQKPGQSPVLVIYQDNRRPSGIPERFSGSNSGNTATLTISGTQAMDEADYYCQAWDSDTYVFGTGTKVTVLGQ[human IgG1 Fc with C220S V273E (EU numbers) not written out]VDGASSPVNVSSPSVQDIDIQMTQSPSSLSASVGDRVTITCKASQSVVTAVAWYQQKPGKSPKLLIYSASNRYTGVPSRFSGSGSGTDFTLTISSLQPEDFATYFCQQYSSYPYTFGGGTKVEIKRDLSGGGGSGGGGSGGGGSGGGGSTGEVQLVQSGAEVKKPGSSVKVSCKASGYTFTDYYINWVRQAPGQGLEWIGWIFPGSGSVYCNEQFKGRATLTVDRSTSTAYMELSSLRSEDTAVYFCASSLGKFAYWGQGTLVTVSS
notes: scFv-Fc-scFv
B4: B37 (bispecific antibody, IgG1)
chain: EVQLVQSGAEVKKPGSSVKVSCKASGYTFTDYYINWVRQAPGQGLEWIGWIFPGSGSVYCNEQFKGRATLTVDRSTSTAYMELSSLRSEDTAVYFCASSLGKFAYWGQGTLVTVSSDLSGGGGSGGGGSGGGGSGGGGSTGDIQMTQSPSSLSASVGDRVTITCKASQSVVTAVAWYQQKPGKSPKLLIYSASNRYTGVPSRFSGSGSGTDFTLTISSLQPEDFATYFCQQYSSYPYTFGGGTKVEIKR[human IgG1 Fc with C220S V273E (EU numbers) not written out]VDGASSPVNVSSPSVQDISYELTQPPSVSVSPGQTASITCSGDKLGDKYASWYQQKPGQSPVLVIYQDNRRPSGIPERFSGSNSGNTATLTISGTQAMDEADYYCQAWDSDTYVFGTGTKVTVLGQDLSGGGGSGGGGSGGGGSGGGGSTGEVQLVQSGAEVKKPGASVKVSCKASGDTFKRYYVHWVRQAPGQGLEWMGIINPSGVSTTYAQKFQGRVTMTRDTSTSTVYMELSSLRSEDTAVYYCAEVRGSGFNYFGMDVWGQGTLVTVSS
notes: scFv-Fc-scFv: huAb8-1 (VH-VL), huIgG1 V273E, HuAM15 (VL-VH)
B5: B44 (bispecific antibody)
chain: SYELTQPPSVSVSPGQTASITCSGDKLGDKYASWYQQKPGQSPVLVIYQDNRRPSGIPERFSGSNSGNTATLTISGTQAMDEADYYCQAWDSDTYVFGTGTKVTVLGQDLSGGGGSGGGGSGGGGSGGGGSTGEVQLVQSGAEVKKPGASVKVSCKASGDTFKRYYVHWVRQAPGQGLEWMGIINPSGVSTTYAQKFQGRVTMTRDTSTSTVYMELSSLRSEDTAVYYCAEVRGSGFNYFGMDVWGQGTLVTVSS[human IgG1 Fc with C220S V273E (EU numbers) not written out]VDGASSPVNVSSPSVQDIEVQLVQSGAEVKKPGSSVKVSCKASGYTFTDYYINWVRQAPGQGLEWIGWIFPGSGSVYCNEQFKGRATLTVDRSTSTAYMELSSLRSEDTAVYFCASSLGKFAYWGQGTLVTVSSDLSGGGGSGGGGSGGGGSGGGGSTGDIQMTQSPSSLSASVGDRVTITCKASQSVVTAVAWYQQKPGKSPKLLIYSASNRYTGVPSRFSGSGSGTDFTLTISSLQPEDFATYFCQQYSSYPYTFGGGTKVEIKR
notes: scFv-Fc-scFv
B6: B41 (bispecific antibody)
chain: DAVMTQTPLSLSVTPGQPASISCRSSQSLENTNGNTFLNWYLQKPGQSPQLLIYRVSNRFSGVPDRFSGSGSGTDFTLKISRVEAEDVGVYYCLQVTHVPFTFGQGTKLEIKRDLSGGGGSGGGGSGGGGSGGGGSTGEVQLQESGPGLVKPSETLSLTCTVSGYSITSNYYWNWIRQPPGKGLEWMGYIRYDGSNNYNPSLKNRVTISRDTSKNQFSLKLSSVTAADTAVYYCARLDYWGQGTTVTVSSR[human IgG1 Fc with C220S V273E (EU numbers) not written out]VDGASSPVNVSSPSVQDIEVQLVQSGAEVKKPGASVKVSCKASGDTFKRYYVHWVRQAPGQGLEWMGIINPSGVSTTYAQKFQGRVTMTRDTSTSTVYMELSSLRSEDTAVYYCAEVRGSGFNYFGMDVWGQGTLVTVSSDLSGGGGSGGGGSGGGGSGGGGSTGSYELTQPPSVSVSPGQTASITCSGDKLGDKYASWYQQKPGQSPVLVIYQDNRRPSGIPERFSGSNSGNTATLTISGTQAMDEADYYCQAWDSDTYVFGTGTKVTVLGQ
notes: scFv-Fc-scFv
B7: B42 (bispecific antibody)
chain: DAVMTQTPLSLSVTPGQPASISCRSSQSLENTNGNTFLNWYLQKPGQSPQLLIYRVSNRFSGVPDRFSGSGSGTDFTLKISRVEAEDVGVYYCLQVTHVPFTFGQGTKLEIKRDLSGGGGSGGGGSGGGGSGGGGSTGEVQLQESGPGLVKPSETLSLTCTVSGYSITSNYYWNWIRQPPGKGLEWMGYIRYDGSNNYNPSLKNRVTISRDTSKNQFSLKLSSVTAADTAVYYCARLDYWGQGTTVTVSSR[human IgG1 Fc with C220S V273E (EU numbers) not written out]VDGASSPVNVSSPSVQDISYELTQPPSVSVSPGQTASITCSGDKLGDKYASWYQQKPGQSPVLVIYQDNRRPSGIPERFSGSNSGNTATLTISGTQAMDEADYYCQAWDSDTYVFGTGTKVTVLGQDLSGGGGSGGGGSGGGGSGGGGSTGEVQLVQSGAEVKKPGASVKVSCKASGDTFKRYYVHWVRQAPGQGLEWMGIINPSGVSTTYAQKFQGRVTMTRDTSTSTVYMELSSLRSEDTAVYYCAEVRGSGFNYFGMDVWGQGTLVTVSS
notes: scFv-Fc-scFv
B8: B38 (bispecific antibody)
chain: DIQMTQSPSSLSASVGDRVTITCKASQSVVTAVAWYQQKPGKSPKLLIYSASNRYTGVPSRFSGSGSGTDFTLTISSLQPEDFATYFCQQYSSYPYTFGGGTKVEIKRDLSGGGGSGGGGSGGGGSGGGGSTGEVQLVQSGAEVKKPGSSVKVSCKASGYTFTDYYINWVRQAPGQGLEWIGWIFPGSGSVYCNEQFKGRATLTVDRSTSTAYMELSSLRSEDTAVYFCASSLGKFAYWGQGTLVTVSS[human IgG1 Fc with C220S V273E (EU numbers) not written out]VDGASSPVNVSSPSVQDISYELTQPPSVSVSPGQTASITCSGDKLGDKYASWYQQKPGQSPVLVIYQDNRRPSGIPERFSGSNSGNTATLTISGTQAMDEADYYCQAWDSDTYVFGTGTKVTVLGQDLSGGGGSGGGGSGGGGSGGGGSTGEVQLVQSGAEVKKPGASVKVSCKASGDTFKRYYVHWVRQAPGQGLEWMGIINPSGVSTTYAQKFQGRVTMTRDTSTSTVYMELSSLRSEDTAVYYCAEVRGSGFNYFGMDVWGQGTLVTVSS
notes: scFv-Fc-scFv
B9: hu106MSLN-1 (bispecific antibody)
chain: EVQLVQSGAEVKKPGSSVKVSCKASGYTFTSYYIYWVRQAPGQGLEWIGNIWPGNGGTFYGEKFMGRATFTADTSTSTAYMELSSLRSEDTAVYYCARRPDYSGDDYFDYWGQGTLVTVSSGGGGSGGGGSGGGGSGGGGSGGGGSGGGGSNVMLTQPHSVSESPGKTVTISCKLNSGNIGSYYVHWYQQRPGSSPTTMIYRDDKRPDGVPDRFSGSIDSSSNSASLTISGLKTEDEADYYCHSYDSTITPVFGGGTKLTVLGQ[human IgG1 Fc with C220S V273E (EU numbers) not written out]GGGGSGGGSGGGSGGGGSSYELTQPPSVSVSPGQTASITCSGDKLGDKYASWYQQKPGQSPVLVIYQDNRRPSGIPERFSGSNSGNTATLTISGTQAMDEADYYCQAWDSDTYVFGTGTKVTVLGQGGGGSGGGGSGGGGSGGGGSGGGGSGGGGSEVQLVQSGAEVKKPGASVKVSCKASGDTFKRYYVHWVRQAPGQGLEWMGIINPSGVSTTYAQKFQGRVTMTRDTSTSTVYMELSSLRSEDTAVYYCAEVRGSGFNYFGMDVWGQGTLVTVSS

Molecular target: T2, MSLN (binding assays of Example 4, Table 4-2) (Homo sapiens (Human), UniProt Q13421 296-598)
T2 construct: also called mesothelin
Assay: antigen binding, format not stated

T2 sequence (Q13421 other isoform, or with tags, fused parts or gaps limits assumed, form in doubt): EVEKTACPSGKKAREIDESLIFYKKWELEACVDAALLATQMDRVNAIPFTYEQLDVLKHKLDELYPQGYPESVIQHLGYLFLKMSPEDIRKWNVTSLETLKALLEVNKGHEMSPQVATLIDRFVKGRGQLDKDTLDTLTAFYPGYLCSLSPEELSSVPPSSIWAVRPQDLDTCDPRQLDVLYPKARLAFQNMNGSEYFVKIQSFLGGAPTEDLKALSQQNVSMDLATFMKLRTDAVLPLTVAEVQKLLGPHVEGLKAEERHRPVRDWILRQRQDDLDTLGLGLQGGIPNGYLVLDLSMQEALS

EC50 [µg/mL]	Binder
5.6	B1
2.5	B2
7.3	B3
4.4	B4
5.7	B5
11.9	B6
6	B7
14.3	B8

Molecular target: CD40 (binding assays of Example 4, Table 4-2)
Assay: antigen binding, format not stated

Sequence of CD40 (binding assays of Example 4, Table 4-2) (P25942 21-277): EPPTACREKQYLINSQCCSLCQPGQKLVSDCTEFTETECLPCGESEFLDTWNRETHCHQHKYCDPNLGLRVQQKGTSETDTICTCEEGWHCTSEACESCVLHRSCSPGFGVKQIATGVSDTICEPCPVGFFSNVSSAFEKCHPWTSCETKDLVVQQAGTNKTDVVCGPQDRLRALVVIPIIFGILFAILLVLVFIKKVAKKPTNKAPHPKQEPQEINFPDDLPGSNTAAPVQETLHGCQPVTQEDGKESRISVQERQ

EC50 [µg/mL]	Binder
1.2	B1
0.5	B2
3.3	B3
0.5	B4
0.8	B5
0.5	B6
0.8	B7
1.2	B8

Molecular target: T1, cynomolgus 4-1BB
Assay: SPR

Kd [nM]	Binder
420	B9
